Values joined by “and” are separate entries in the source; they are usually repeats but may differ in a detail not shown here. Identical values can stand only once. Screen size: about 71,000 compounds; about 1,400 (2%) were called active. The inconclusive results got no clear call from the source; some entries with a clear call stand among them for comparison. The call rests on the fitted dose curve; in most records, active means well fitted curve in the direction sought with a large enough effect; inconclusive means small, poorly fitted or top-dose-only effect; inactive means no such curve, though single readings can be large or run the other way. Potencies beside an inconclusive call are fits to weak or partial responses and may not hold up.
biological target: Microtubule-associated protein tau (Homo sapiens) (UniProt P10636); test: qHTS Assay for Tau Filament Binding; conditions: recombinant tau filaments, thioflavin S fluorescence, 15 h, filaments grown with octadecylsulfate alongside compound; series mostly up to 57.1 µM; activity change, negative = inhibition: at the top concentration;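 further: actives lower thioflavin S fluorescence by blocking filaments or displacing dye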
Description: NIH Molecular Libraries Screening Centers Network [MLSCN]
NIH Chemical Genomics Center [NCGC]
Assay Provider: Jeffrey A. Kuret, Ohio State University
Tau monomers form filaments in vitro in the presence of anionic detergents or fatty acids. The dye Thioflavine S (ThS) binds to tau filaments and upon binding, increases in fluorescence several fold. Small molecules that displace ThS binding or prevent filament binding are identified by a reduction in ThS fluorescence. This assay used histidine-tagged, recombinant human tau protein containing the products of exons 2, 3, and 10 that was provided by Jeff Kuret, Ohio State University. To form filaments, 1 uM tau was incubated with 30 uM sodium octadecylsulfate (ODS) in reagent buffer (10 uM thioflavine S, 5 mM 1,4-dithioerythreitol (DTT), 100 mM sodium chloride, 10 mM HEPES pH 7.4) for 15 hrs at 37 C.
NCGC Assay Protocol Summary:
Assay Steps. Two uL/well of 2 uM tau in reagent buffer (10 uM thioflavine S, 5 mM DTT, 100 mM sodium chloride, 10 mM HEPES pH 7.4) was dispensed into solid black 1536-well plates. Twenty-three nL compound was transferred to the assay plate after which 2 uL/well of 60 uM ODS in reagent buffer was dispensed for a final assay volume of 4 uL /well. Following 15 hours of incubation at 37 C, fluorescence was detected by an Envision (Perkin Elmer) using 450/8 nm excitation and 510/23 nm emission.
Keywords: NIH Roadmap, MLSCN, MLI, MLSMR, qHTS, NCGC, Alzheimer's disease, Neurofibrillary lesions, tau, tubulin assembly, microtubule stability, cytoskeletal integrity, fibrillization, thioflavin dyes, Amyloidgenic
On the % scale 0 is the no-effect control and ±100 the full control effect; potency means the concentration at half of the fitted maximal effect.

Chain of UniProt P10636 (P10636 whole entry, looked up): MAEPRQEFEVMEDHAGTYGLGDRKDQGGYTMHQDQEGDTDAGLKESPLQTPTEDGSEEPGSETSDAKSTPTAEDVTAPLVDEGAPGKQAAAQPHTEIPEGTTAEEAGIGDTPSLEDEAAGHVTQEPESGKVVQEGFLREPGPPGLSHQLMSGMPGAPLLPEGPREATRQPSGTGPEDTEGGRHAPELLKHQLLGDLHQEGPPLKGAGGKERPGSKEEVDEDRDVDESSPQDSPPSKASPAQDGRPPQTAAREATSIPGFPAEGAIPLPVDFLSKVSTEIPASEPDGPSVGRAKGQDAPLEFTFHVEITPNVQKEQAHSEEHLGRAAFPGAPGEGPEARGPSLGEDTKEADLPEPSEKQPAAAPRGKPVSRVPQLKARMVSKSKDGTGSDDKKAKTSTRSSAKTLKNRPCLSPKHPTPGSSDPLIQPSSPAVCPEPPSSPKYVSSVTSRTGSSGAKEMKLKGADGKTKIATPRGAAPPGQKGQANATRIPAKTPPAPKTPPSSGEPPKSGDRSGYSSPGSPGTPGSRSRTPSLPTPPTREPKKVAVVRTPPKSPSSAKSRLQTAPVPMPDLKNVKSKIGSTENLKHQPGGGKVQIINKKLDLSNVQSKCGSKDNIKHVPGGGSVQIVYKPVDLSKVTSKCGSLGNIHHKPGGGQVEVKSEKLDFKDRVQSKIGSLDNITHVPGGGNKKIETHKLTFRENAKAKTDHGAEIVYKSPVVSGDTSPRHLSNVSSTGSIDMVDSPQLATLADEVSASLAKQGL

SMILES | Potency | activity change, negative = inhibition
CCS(=O)(=O)N(C)[C@@H]1c2cc(C#N)ccc2OC(C)(C)[C@H]1O | inconclusive: 39.8 µM [decreasing] | –
Cc1nc(C)c(C(=O)NCc2ccc(Cl)cc2)o1 | inconclusive: 12.6 µM [decreasing] | –
NC1=NCCCC1 | inconclusive: 39.8 µM [decreasing] | –
O=c1c2ccccc2nc2n1CC/C2=C/N1CCN(c2cccc(C(F)(F)F)c2)CC1 | inconclusive: 31.6 µM [decreasing] | –
O=C(CSCc1ccco1)c1ccc(Cl)s1 | inconclusive: 25.1 µM [decreasing] | –
CC(C)C(c1nnnn1Cc1ccccc1)N1CCc2ccccc2C1 (centres undefined) | – | inactive: -20%
COc1ccc(Cl)cc1NC(=O)CN(C(=O)c1ccco1)C1CCCCC1 | – | inactive: 8%
CCN(C(=O)c1c(-c2ccccc2)noc1C)c1ccccc1 | – | inactive: -0.9%
O=C(Nc1ccc2c(c1)OCO2)C1Cc2ccccc2CN1S(=O)(=O)c1cccs1 (centres undefined) | active: 25.1 µM | –
CNc1ccc(O)cc1 | active: 20 µM | –
CCOC(=O)C1CCCN(c2ccc(NC(=O)c3snc4c(=O)[nH]cnc34)cc2)C1 (centres undefined) | active: 15.8 µM | –
CCOC(=O)c1nnc2cc(-c3ccccc3)nn2c1C | active: 15.8 µM | –
CCOC(=O)N1CCC(Nc2cccc(SC)c2)CC1 | inconclusive: 12.6 µM [decreasing] | –
CN(C)CCC[C@@]1(c2ccc(F)cc2)OCc2cc(C#N)ccc21 | inconclusive: 39.8 µM [decreasing] | –
CCCC(=O)Nc1ncnc2c1ncn2[C@@H]1O[C@@H]2COP(=O)(O)O[C@H]2[C@H]1OC(=O)CCC | active: 39.8 µM | –
CC(=O)Oc1c(C)cc(O)c2ccccc12 | inconclusive: 25.1 µM [decreasing] | –
COC(=O)c1ccc(CSc2nc3scc(-c4cccs4)c3c(=O)[nH]2)o1 | inconclusive: 31.6 µM [decreasing] | –
CCN(CC)CC(=O)Nc1ccc2c(c1)Nc1ccccc1CC2 | active: 12.6 µM | –
CCCCNc1cc(C)oc(=O)c1C(C)=O | – | inactive: -9.3%
O=C(c1cccc2c1-c1ccccc1/C2=N/O)N1CCCCC1 | – | inactive: -0.6%
COc1cccc(NC(=O)c2oc3ccccc3c2NC(=O)C(C)(C)C)c1 | – | inactive: -7.1%
O=C(CCc1ccc(O)cc1)c1c(O)cc(O)cc1O[C@@H]1O[C@@H](CO)[C@@H](O)[C@@H](O)[C@H]1O | inconclusive: 39.8 µM [decreasing] | –
O=C(NCCN1CCN(c2ccccc2)CC1)c1cccn2c(=O)c3ccccc3nc12 | inconclusive: 3.98 µM [decreasing] | –
CCn1c(=O)c(C(=O)CN2CCCc3ccccc32)c(N)n(Cc2ccccc2)c1=O | active: 25.1 µM | –
Nc1ccc2nc(-c3ccc(Cl)cc3)[nH]c2c1 | active: 7.94 µM | –
COc1ccccc1N1CCN(S(=O)(=O)c2c(C)ccc3nsnc23)CC1 | inconclusive: 12.6 µM [decreasing] | –
CC(C)(C)c1cc(CNC2CS(=O)(=O)C[C@@H]2O)cc(C(C)(C)C)c1O (some centres undefined) | inconclusive: 25.1 µM [decreasing] | –

SMILES | Potency | activity change, negative = inhibition
CCOC(=O)Cn1nc(-c2ccc(Cl)cc2)cc1N | inconclusive: 25.1 µM [decreasing] | –
CN1CCN(c2ncc3nc(-c4ccc(Cl)cc4)c(=O)n(Cc4ccc(F)cc4)c3n2)CC1 | inconclusive: 3.98 µM [decreasing] | –
COc1cccc(-c2ccc3ncnc(NCCN4CCOCC4)c3c2)c1 | – | inactive: -9.8%
Cc1ccc2[nH]c(=O)c(CN(CCCO)S(=O)(=O)c3cccc4nsnc34)cc2c1 | inconclusive: 20 µM [decreasing] | –
CC1=C(\C=C/C(C)=C/C=C\C(C)=C\C(=O)O)C(C)(C)CCC1 | inconclusive: 31.6 µM [decreasing] and inconclusive: 39.8 µM [decreasing] | –
COc1cc2cc3c(N)c(C(=O)NCc4ccco4)sc3nc2cc1OC | inconclusive: 39.8 µM [decreasing] | –
CC(=O)Nc1cccc(Oc2cc(C#N)c(C#N)cc2N2CCCCCC2)c1 | inconclusive: 39.8 µM [decreasing] | –
CCOc1ccc(OCC)c(NS(=O)(=O)c2cccc3nsnc23)c1 | active: 25.1 µM | –
COc1ccc(-c2nc3oc4cc(OC)ccc4c(=O)c3c(=O)n2Cc2ccco2)cc1 | inconclusive: 3.16 µM [decreasing] | –
OCCN1CCN(CCCN2c3ccccc3Sc3ccc(Cl)cc32)CC1 | inactive | –
CC(C)[C@@H]1NC(=O)[C@H](CCCCN)NC(=O)[C@H](Cc2c[nH]c3ccccc23)NC(=O)[C@H](Cc2ccc(O)cc2)NC(=O)[C@H](C)N(C)C(=O)[C@H](Cc2ccccc2)NC1=O | – | inactive: -6.9%
COc1ccc(C(F)(F)F)cc1NC(=O)c1nc2nc(C)cc(C(F)F)n2n1 | inconclusive: 25.1 µM [decreasing] | –
CCN(CC)c1ccc(NC(=O)c2[nH]c(C)c(C(C)=O)c2C)c(C)c1 | inconclusive: 31.6 µM [decreasing] | –
N[C@@H](C(=O)O)c1ccc(C(=O)O)c(C(=O)O)c1 | inconclusive: 39.8 µM [decreasing] | –
CC(=O)N1CCN(c2ccc(N=Cc3c(O)n(Cc4ccccc4)c(=O)[nH]c3=O)cc2)CC1 | inconclusive: 31.6 µM [decreasing] | –
CCN1C(=O)c2cccc3c(NS(=O)(=O)c4ccc(NC(C)=O)cc4)ccc1c23 | – | inactive: -27.1%
Cc1nc(N)sc1-c1csc(N(C)c2ccc(O)cc2)n1 | inconclusive: 39.8 µM [decreasing] | –
O=c1c(-c2ccc(F)cc2)nc2cnc(N3CCNCC3)nc2n1Cc1ccc(F)cc1 | inconclusive: 3.98 µM [decreasing] | –
CCCCCc1c(C)nc(Nc2ccc(F)cc2)[nH]c1=O | inconclusive: 25.1 µM [decreasing] | –
CN(N=O)C(=O)N[C@H]1C(O)OC(CO)[C@@H](O)[C@H]1O (some centres undefined) | inconclusive: 39.8 µM [decreasing] | –
CCn1c(SCC(=O)c2cc(OC)ccc2OC)nnc1C(C)C | – | inactive: -4.2%
Cc1scc2c1N(C(=O)CN1CCN(C)CC1)c1ccccc1NC2=O | inconclusive: 39.8 µM [decreasing] | –
Cc1ccc(-c2cc(-c3ccc(F)cc3)nc(N)c2C#N)o1 | – | inactive: 0.4%
COc1ccc(CC(=O)OCC(=O)Nc2ncc(Cl)cc2Cl)cc1 | inconclusive: 25.1 µM [decreasing] | –
Cc1onc(-c2ccccc2Cl)c1C(=O)Nc1ccc(-n2nncc2-c2ccco2)cc1 | inconclusive: 39.8 µM [decreasing] | –
CCNc1ncc2nc(-c3ccccc3)c(=O)n(CCOC)c2n1 | – | inactive: 49.6%
COc1ccc(-c2cc(C(=O)N3CCN(c4ccccn4)CC3)c3ccccc3n2)cc1 | – | inactive: 29.6%

SMILES | Potency | activity change, negative = inhibition
COc1ccc(Cc2nccc3cc(OC)c(OC)cc23)cc1OC | inconclusive: 39.8 µM [decreasing] | –
COc1cccc(-c2cc(=O)c3cc(O)ccc3o2)c1 | active: 31.6 µM | –
CS(=O)(=O)N(CC(=O)Nc1ccc2c(c1)OCO2)Cc1ccc(Cl)cc1 | inconclusive: 6.31 µM [decreasing] | –
CC1(C)CC(=O)C2=C(C1)Oc1ncn(Cc3ccco3)c(=N)c1C2c1ccccc1 (centres undefined) | active: 15.8 µM | –
Cc1ccc(OCC(O)Cn2c(=N)n(CCN3CCCCC3)c3ccccc32)cc1 (centres undefined) | – | inactive: 341%
O=C1[C@H]2[C@@H](C(=O)N1c1cc(Cl)cc(Cl)c1)[C@]1(C(=O)Nc3ccccc31)N1CCC[C@@H]21 | inconclusive: 31.6 µM [decreasing] | –
COc1ccc(C)cc1-n1nnnc1SC/C(O)=C(\C#N)c1nc2ccccc2[nH]1 | inconclusive: 3.98 µM [decreasing] | –
Cc1ccc2c(c1)C1C=CCC1C(C(=O)O)N2 (centres undefined) | inconclusive: 0.631 µM [decreasing] | –
CN(C(=O)c1ccco1)c1nnc(C23CC4CC(CC(C4)C2)C3)s1 | – | inactive: 14.1%
C[C@@H](/C=C\c1cccc(Oc2ccc(F)cc2)c1)N(O)C(N)=O | inconclusive: 39.8 µM [decreasing] | –
CNC(=O)c1cc2c(cn1)[nH]c1ccccc12 | inconclusive: 39.8 µM [decreasing] | –
Cc1ccc(C(=O)N2CCN(c3ccc(NC(=O)c4cccnc4)cc3)CC2)cc1 | inconclusive: 39.8 µM [decreasing] | –
O=C(NCCN1CCOCC1)c1ccc2c(c1)N(Cc1ccccc1)CCS2 | inconclusive: 25.1 µM [decreasing] | –
COC(=O)c1c(N)n(-c2ccc(NC(C)=O)cc2)c2nc3ccccc3nc12 | inconclusive: 31.6 µM [decreasing] | –
CCn1c(=O)c(=O)[nH]c2cc(C(=O)N3CCN(c4ccccc4F)CC3)ccc21 | inconclusive: 20 µM [decreasing] | –
CSc1nc(NC2CCCC2)c([N+](=O)[O-])c(NC2CCCC2)n1 | inconclusive: 39.8 µM [decreasing] | –
CC(Nc1n[nH]c(=S)[nH]c1=O)C(=O)OCc1ccccc1 (centres undefined) | – | inactive: -9.2%
CCSC(=N)N | inconclusive: 39.8 µM [decreasing] | –
C=CCn1c(SCc2cccc(C#N)c2)nnc1-c1ccccc1O | inconclusive: 39.8 µM [decreasing] | –
O=C(Nc1ccc2[nH]c3c(c2c1)CCCC3)c1ccco1 | – | inactive: 271%
Oc1cc(O)cc(/C=C\c2ccc(O)c(O)c2)c1 | inconclusive: 5.01 µM [decreasing] | –
Cc1ccc(-c2cnc(-c3ccncc3)o2)cc1 | – | inactive: 20.7% [at 11.4 µM]
CC(=O)c1ccc(S(=O)(=O)NC(=O)NC2CCCCC2)cc1 | inactive | –
CC(=O)N1CCc2cc(S(=O)(=O)CCC(=O)N3CCN(c4ccccn4)CC3)ccc21 | – | inactive: 7.5%
O=C(Nc1ccc(Br)cc1)c1cnccn1 | inconclusive: 31.6 µM [decreasing] | –

From PubChem BioAssay AID596 (National Center for Advancing Translational Sciences (NCATS), 2007)
